Molecules are shown by their SMILES. The list shows a part of the results. Repeats are few or missing, and single values can be far off.
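Note: cell number obtained by counting DAPI-stained nuclei in high-throughput microscope images with image analysis software, screen run in 1,536-well plates.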

The subject of the test is IPC-298. Kind of test: cell count relative to DMSO control; melanoma cells; higher = more viable cells. Conditions: library dose: low library concentration; 72 h.
Turning to `COc1cc([C@@H]2c3cc4c(cc3[C@@H](O[C@@H]3O[C@@H]5CO[C@@H](C)O[C@H]5[C@H](O)[C@H]3O)[C@H]3COC(=O)[C@H]23)OCO4)cc(OC)c1O` [etoposide] + O=c1[nH]nc(Sc2ncc([N+](=O)[O-])s2)n1-c1ccc2c(c1)OCCO2 [BI78D3] (first compound 0.02 µM, partner dose 0.2 µM), the cell count was 86.6%.

For the compound `Cn1cnc2c(F)c(Nc3ccc(Br)cc3Cl)c(C(=O)NOCCO)cc21` [selumetinib] + Nc1nc(F)nc2c1ncn2[C@@H]1O[C@H](CO)[C@@H](O)[C@@H]1O [fludarabine] (first compound 0.015 µM, partner dose 0.2 µM), the cell count is 63.7%.

In turn, `Cn1cnc2c(F)c(Nc3ccc(Br)cc3Cl)c(C(=O)NOCCO)cc21` [selumetinib] + Clc1ccc(Nc2nnc(Cc3ccncc3)c3ccccc23)cc1 [vatalanib] (first compound 0.015 µM, partner dose 2 µM) gave a cell count of 68.4%.

Turning to `CCN(CC)CCNC(=O)c1c(C)[nH]c(/C=C2\C(=O)Nc3ccc(F)cc32)c1C` [sunitinib] + O=C(O)c1ccc2c(c1)nc(Nc1cccc(Cl)c1)c1ccncc12 [CX4945] (first compound 0.4 µM, partner dose 0.4 µM), the cell count amounted to 95.6%.

The compound `C[C@]1(O)C[C@@H](c2nc(-c3ccc4ccc(-c5ccccc5)nc4c3)c3c(N)nccn32)C1` + NC1(c2ccc(-c3nc4ccn5c(=O)[nH]nc5c4cc3-c3ccccc3)cc2)CCC1 [MK2206] (first compound 0.4 µM, partner dose 0.4 µM) gave a cell count of 100%.

Source of the values: the supplement of paper PMC4604168 (melanoma cell lines).
